Results published in publication PMC12136788.
Some of the results follow.

B1: chr17:13109412:13109413:+_ENSMUSG00000068039_ENSMUST00000151287|mus_mus|motif|central (ssRNA)
RNA: GGGAGUUCUACAGUCCGACGAUCGUGCUGCGGUCCCCGAACACGGACAAAGGACCCUCCAUCUUCAGGAAACGAAGCAAAGCUCACGGCGGCCGCAGACAACCGAUAGCUCCGCUCUGAGACCGUUUAACGGCCACCACGGCGCAACAGAGGAUUGAGCAUCA
B2: chr11:61589858:61589859:-_ENSMUSG00000004798_ENSMUST00000004920|mus_mus|FALSE|FALSE (ssRNA)
RNA: GGGAGUUCUACAGUCCGACGAUCCUAUUUUGAAGAUAAUGCAGUUACAAAUGAGAGGUAGAAACACUGUAGUAAAGACCUAAGAAUACAAACAUCCUAUACAUAAACGUUCAAAUUAACUGCUGGAAUUUCAUACAGAUAAAUCAACAGAGGAUUGAGCAUCA
B3: 98611824_98611944_5957_CDS_ENSMUSG00000028556_ENSMUST00000030286|mouse|control|control (ssRNA)
RNA: GGGAGUUCUACAGUCCGACGAUCUUUGUGAGUGACAUUGACUCUUGUUUUAAUGUAAGGAAAGGCAUGAGACGUUGUCAGAAUGGUCUUCCGUUUGAAUUGUUCAUGAAGCUCCCCAUGAGCACGGCCAUCUAAAGUGAAGGGCAACAGAGGAUUGAGCAUCA
B4: chr16:94664741:94664742:+_ENSMUSG00000040785_ENSMUST00000117648|mus_hu|mus_mus_mus_hu_False|58_78 (ssRNA)
RNA: GGGAGUUCUACAGUCCGACGAUCUGGUACUGAUCUUGGUAGCUGAUAUUCAGGAGAAAUGUUGGCCAAGGGUGUAUAAAUGCUAGUGUACUGGGGCAAACCUGGUAACACGUUUAUGUAUGCUGGCGGUGUCUGGGUGAUAUCCAACAGAGGAUUGAGCAUCA
B5: 168329706_168329826_1012_CDS_ENSMUSG00000040596_ENSMUST00000169324|mouse|control|control (ssRNA)
RNA: GGGAGUUCUACAGUCCGACGAUCCCUUCUCAUCAUUCUUCGACACCAGCCCAGACUUGCCUUGAACCCUUUCUCUGGAAUGUUCAUUUCCUGGGCGAUUUCAAGAGCUUUCAACUGCAUUGCCUCCCUAGUGAUAGGGUCCCCCAACAGAGGAUUGAGCAUCA
B6: 79948201_79948321_2510_3pUTR_ENSMUSG00000022415_ENSMUST00000009727|mouse|control|control (ssRNA)
RNA: GGGAGUUCUACAGUCCGACGAUCCUGCUCAAGAGGAGCUGCGGGGCUGCUUCUAGGCCUCUGACACCCUUGUCCCCUCCCUGACUCUUCCUCAGGCCCGUGCUCACGCAACGUUUCCCACCGUAAUGGACCCUGUGCCUGUAUCAACAGAGGAUUGAGCAUCA
B7: chr9:98468509:98468510:+_ENSMUSG00000032458_ENSMUST00000035033|mus_hu|FALSE|FALSE (ssRNA)
RNA: GGGAGUUCUACAGUCCGACGAUCAAUGUCUUCACCAGUGUCUGUGUUUCAUGAUUCCAAACACACACACUGCCAUUGUAAAGACUUGCCAACAUCCAUGGCUCUGUAGGAUGCAGAUCCACACUCUUAACUCGAUCAGAUCUACAACAGAGGAUUGAGCAUCA
B8: chr12:57883053:57883054:+_ENSG00000166986_ENST00000262027|hu_mus|FALSE|FALSE (ssRNA)
RNA: GGGAGUUCUACAGUCCGACGAUCGGUGAGAUCAUCUUGUUCCCAGCCACAUAACAGAAAAAAAUAUCGGCAGAUUGCACUAGCAGAGAAGAGGUAGUUGCCACUAUCCAGCUGCAAGACAGGGACCUUAGGCCGGGUAAGGAACAACAGAGGAUUGAGCAUCA
B9: chr2:104499440:104499441:+_ENSMUSG00000027176_ENSMUST00000028599|mus_mus|FALSE|FALSE (ssRNA)
RNA: GGGAGUUCUACAGUCCGACGAUCUUCUCCAGACUUCUCAGGAGGAAGGCUUCCAGACGUUAGAACUCUUUCAAACAAAACUCGAGUAUUAUUGUCCUCAUUGAGGUGAGAGAGAUAGUCAAUAUAAGCCAAAACAUAUUCUGGCAACAGAGGAUUGAGCAUCA
B10: chr8:13020401:13020402:+_ENSMUSG00000031442_ENSMUST00000123811|mus_mus|FALSE|FALSE (ssRNA)
RNA: GGGAGUUCUACAGUCCGACGAUCCCAGUAAUGGCUUUGCAAGCCAUAGGGCAGGGGAGGAGGGUGUUUUUCCUGGACAUACAGUGGUGAACGAGCCUCGGUGGCCUCCCAUGGCAGCAGGGUGAGGAGACAGGGAGGGACCGUCAACAGAGGAUUGAGCAUCA
B11: chr17:5391764:5391765:+_ENSG00000167842_ENST00000381165|hu_hu|motif|central (ssRNA)
RNA: GGGAGUUCUACAGUCCGACGAUCUGAGCUUCAAUGACCUAUAGCUCCACCUUUUAGCCACCUGGCUCUUGAUAUUUGUAACGGCUCUUCCAAACUGCUUCUACUUUUUGACUACUGCCUCCUACACAAUUCUUCCAAUUCUUACAACAGAGGAUUGAGCAUCA
B12: chr7:141441981:141441982:+_ENSG00000106028_ENST00000265304|hu_mus|hu_hu_hu_mus_False|48_48 (ssRNA)
RNA: GGGAGUUCUACAGUCCGACGAUCCUCAUGUCUUACAAACUGACGAAAUACCUGUAACACAGGUCUUCGAAACAUGGCUUCUGUUUUCUUUUCUUACUAAUCUUUAGGCUUUUCCUAAAGGAAAGAAAGAAAAGAGAAAAAUGACAACAGAGGAUUGAGCAUCA
B13: chrX:71549762:71549763:+_ENSMUSG00000019087_ENSMUST00000019231|mus_mus|mus_mus_mus_hu_False|28_68 (ssRNA)
RNA: GGGAGUUCUACAGUCCGACGAUCAAACCCGUGUACUUCUUAUUGUUAGCACAACAUCACCAGAAAAAAAACAUAACAGCCAAGCAGGACAGACAGUUAAGUAGUACUUCCACACCUCCAAACUCAGGGAGCCCUAUAACCUUACAACAGAGGAUUGAGCAUCA
B14: 96352238_96353342_2103_CDS_ENSG00000119969_ENST00000348459|human|control|control (ssRNA)
RNA: GGGAGUUCUACAGUCCGACGAUCUGCUGCAGUCAGAUUAAUGCCCAGGCCACCAGCUCGUGUACUCACUAAGAAGAUAAACACCUCUGGAUCCGUGUUGAAGCUGUGCAUGUUUUUUUCUCUCUCUGAGUAAGACAUGGACCCCAACAGAGGAUUGAGCAUCA

Molecular target: T1, UNK ZnF1-3 (human, UniProt Q9C0B0 31-174)
T1 sequence: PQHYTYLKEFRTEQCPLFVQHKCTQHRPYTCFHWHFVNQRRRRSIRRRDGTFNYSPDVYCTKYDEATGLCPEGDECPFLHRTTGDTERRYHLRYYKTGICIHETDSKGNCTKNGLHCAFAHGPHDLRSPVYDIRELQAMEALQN
Assay: nsRBNS (natural sequence RNA bind-n-seq); RBNS binding buffer (assumed for nsRBNS): 25 mM Tris pH 7.5, 150 mM KCl, 3 mM MgCl2, 0.01% Triton X-100, 500 ug/ml BSA, 20 U/ml SUPERase-In, 4 C; UNK is unkempt and MSI1 is Musashi-1; names of the RNAs are library labels; protein concentration not given here; high values mean tight binding

| Binder | binding signal [enrichment R] |
| --- | --- |
| B1 | 0.579 |
| B2 | 1.25 |
| B3 | 1 |
| B4 | 0.909 |
| B5 | 0.852 |
| B6 | 0.892 |
| B7 | 0.271 |
| B8 | 2.18 |
| B9 | 1.51 |
| B10 | 0.89 |
| B11 | 0.761 |
| B12 | 0.393 |
| B13 | 2.21 |
| B14 | 0.955 |
